# Some of the results follow.
# T1: UNK ZnF1-3 (human, UniProt Q9C0B0 31-174)
# T1 sequence: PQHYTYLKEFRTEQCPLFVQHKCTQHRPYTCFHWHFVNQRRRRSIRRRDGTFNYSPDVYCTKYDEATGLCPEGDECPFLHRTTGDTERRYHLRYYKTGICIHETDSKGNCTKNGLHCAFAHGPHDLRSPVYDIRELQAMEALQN
# B1: chr8:95500983:95500984:-_ENSG00000164944_ENST00000437199|hu_hu|hu_hu_hu_mus_True|98_108 (ssRNA)
# RNA: GGGAGUUCUACAGUCCGACGAUCAGAAGGAUUUUUAUCGUGUAAAGACCGUACAUGACGGCCUCUACCACUGCCUCCACUAACAAACUUUCCUCUCGAGCCUCCACUGCCGCUAUUUGUACUAGCCCAGGACGGUCCCAGGCCCAACAGAGGAUUGAGCAUCA
# B2: chr1:26449037:26449038:+_ENSG00000175087_ENST00000374271|hu_mus|motif|central (ssRNA)
# RNA: GGGAGUUCUACAGUCCGACGAUCAUGCUUGCAAGCAGUAGGUCACGUCUCCCAGCUGCUGUCUUUAAAUGCAAUUUGGACGGAUCUGAGUUCUAGUUCAAAAGCAUCAGGGCGAUCCUGAGGGUUUGCGGCCAGCAUUUCCUUCAACAGAGGAUUGAGCAUCA
# B3: chr2:232320318:232320319:-_ENSG00000115053_ENST00000322723|hu_hu|hu_hu_hu_mus_True|28_48 (ssRNA)
# RNA: GGGAGUUCUACAGUCCGACGAUCACUAUUAAAGUCUACAAAACCAAACCCUUUGGAAGAACCAGUUUCCCGAUCAGUGACUAUUCUUGCCCGAACGGAGCCCUCAAAUGACUCCUUUAAGGUCUCUUCAGUGGUAUCCUCAGACAACAGAGGAUUGAGCAUCA
# B4: chr3:55303971:55303972:+_ENSMUSG00000027797_ENSMUST00000054237|mus_hu|FALSE|FALSE (ssRNA)
# RNA: GGGAGUUCUACAGUCCGACGAUCGCCGUCUACAAUGGUGGCCAGUCCAAAGUCACCCAGCUUCAGUGAUUUGCUGCCAUCUUGGUGCUCAUACACCAGCAGGUUCUCUGGCUUGAUAUCACGGUGGACGAUGUUCAGGCUAUGCAACAGAGGAUUGAGCAUCA
# B5: chr9:101992667:101992668:+_ENSG00000106803_ENST00000223641|hu_hu|FALSE|FALSE (ssRNA)
# RNA: GGGAGUUCUACAGUCCGACGAUCAGAUGGAUGUAACUGAAUCUACGAACGAGUGUACUUGCCCCAAAUGUGCAACAUAAAUACAGAAGCGAUGAACAGAAGACUCAUAACCAAUACUGGAACAGGGCCAACUUUGAGCCCAGGCAACAGAGGAUUGAGCAUCA
# B6: chr1:63355414:63355415:+_ENSMUSG00000027520_ENSMUST00000029025|mus_hu|motif|central (ssRNA)
# RNA: GGGAGUUCUACAGUCCGACGAUCUGUCACCCUCUUUCCAUGAAUUUUCUUUUUACUUUGACUUUCCAAAAGCUUAUUUCGGACUGAUUUUGGAGAGAUUUUGACAACAUCAUGAUUUAAAAAUGUUAGCUGGAAAUUUCUUUUCAACAGAGGAUUGAGCAUCA
# B7: chr3:57569730:57569731:-_ENSG00000168374_ENST00000303436|hu_hu|motif|central (ssRNA)
# RNA: GGGAGUUCUACAGUCCGACGAUCAUAUUCUACUGUUUCCACAUUAAAACCAAUGGUAGGAAUGGUGGUGACUAUCUCCCCGGACUUCAGUUUAUACAGAAUGGUUGUCUUGCCAGCAGCAUCCAAUCCAACCAUCAAAAUGCGCAACAGAGGAUUGAGCAUCA
# B8: chr6:51416999:51417000:-_ENSMUSG00000004980_ENSMUST00000090002|mus_hu|FALSE|FALSE (ssRNA)
# RNA: GGGAGUUCUACAGUCCGACGAUCAUCAAUUGAAUGAGGUCUUGCAGCCAUGGCAGCAUCAACCUCAGCCAUGGAUGAAAAAGUUACAAAACCAAAUCCUCUUGAUCUUUUGCUUGCAGGAUCCCUCAUUACCACACAGUCUGUCAACAGAGGAUUGAGCAUCA
# B9: 156688934_156689054_131_5pUTR_ENSMUSG00000027637_ENSMUST00000029165|mouse|control|control (ssRNA)
# RNA: GGGAGUUCUACAGUCCGACGAUCCCGCCCGCCGCUCAUCCUCCCGUCGCGCCGCCCGAGCCGGGCGUGGGGCGCGCGGGCCAAGCCGAAGGGAGUCGGGGUCUGGGACCGCGGGACUCGGCGCGCGGGGCGGCAGCGGUAGUCCAACAGAGGAUUGAGCAUCA
# B10: 111894903_111895023_5806_3pUTR_ENSG00000260230_ENST00000561981|human|control|control (ssRNA)
# RNA: GGGAGUUCUACAGUCCGACGAUCGUCCCUAUCUAAGAACAAGGGUGGGAAAGCCACAGUCCAUAAGCAAACCCCGCCUGCUUCCUGUUUUUGUGCAGCCUGCAAGCUAAGAAUGGUCUUUGGAUUUUUUUAAUGGCUUUCUGACAACAGAGGAUUGAGCAUCA
# B11: chr2:9628331:9628332:+_ENSG00000134330_ENST00000482918|hu_hu|FALSE|FALSE (ssRNA)
# RNA: GGGAGUUCUACAGUCCGACGAUCUUCUGCUACAUCCCGCCAGUAAGGAAGCAGCAAAGGUAGAGAAGAGACCUUUUUCUCUAUCAAAGGCCAGAGAUGCGAGAACAAAAAUUCAUUCCCCUUUGGAGACAAAUGUAGUCCAUCCAACAGAGGAUUGAGCAUCA
# B12: 121704050_121704170_680_5pUTR_ENSMUSG00000042744_ENSMUST00000119892|mouse|control|control (ssRNA)
# RNA: GGGAGUUCUACAGUCCGACGAUCUUCUACUCUGGGACUGAAUAAGGGGGAAGACCAACAGGAGGCCCACCCGGGACGUGAAGGGGGCUUGUUCAGGCUGCUGCAACAAGCCCUGGCGCUUGAGCAGGGCCAAGGUCUCUUCGUCAACAGAGGAUUGAGCAUCA
# B13: chr5:145543945:145543946:-_ENSG00000133706_ENST00000545646|hu_hu|hu_hu_hu_mus_True|18_58 (ssRNA)
# RNA: GGGAGUUCUACAGUCCGACGAUCCUGAACGGCCAGUGGUGGGAAAUAAUCAAGCCAGUGCUCUGCUUCAGAAAACUUUACUAUCUCGUCAUCAGAGAGCCCAAGGGAUUUCAUAAUGCCCCACUGGUACUUAGAAGAUCCUGCCAACAGAGGAUUGAGCAUCA
# B14: chr7:65705844:65705845:+_ENSG00000169902_ENST00000304842|hu_mus|hu_hu_hu_mus_False|8_18 (ssRNA)
# RNA: GGGAGUUCUACAGUCCGACGAUCAAACGGAUCUUUGUUACAUAAAUAAGGUGCCGGCUCCCCAUGUUUAACAAUGACCUCCAGAAGGAAGGCUUGCAUGGCAGAAUCUAGCACUUCAUCAGUAACACCAGCCUCAUCCAAGCGCAACAGAGGAUUGAGCAUCA
# Molecular target: T1, UNK ZnF1-3
# Test: nsRBNS (natural sequence RNA bind-n-seq); RBNS binding buffer (assumed for nsRBNS): 25 mM Tris pH 7.5, 150 mM KCl, 3 mM MgCl2, 0.01% Triton X-100, 500 ug/ml BSA, 20 U/ml SUPERase-In, 4 C; UNK is unkempt and MSI1 is Musashi-1; names of the RNAs are library labels; protein concentration not given here; high values mean tight binding
row,Binder,binding signal [enrichment R]
1,B1,0.979
2,B2,0.722
3,B3,0.43
4,B4,0.754
5,B5,1.27
6,B6,0.649
7,B7,1
8,B8,1.09
9,B9,0.499
10,B10,0.652
11,B11,1.34
12,B12,0.727
13,B13,1.01
14,B14,0.41
